In one test the test system is MTAP-deleted cell line. As to the kind of experiment: viability assay for the MTAP-deleted cell line. The class given is cell-based. The following applies: Homo sapiens, HAP1, viability assay.
Test [1] relates to HAP1 MTAP-intact cell line. As to the kind of experiment: SDMA in-cell western assay, HAP1 MTAP-intact. To be noted: Homo sapiens.
For test [2], the system named is HAP1 MTAP-deleted cell line. As to the kind of experiment: SDMA in-cell western assay, HAP1 MTAP-deleted. The following applies: for IC50 / IC90: Homo sapiens; for Hap1 MTAP intact/deleted ratio: IC50 ratio between HAP1 MTAP-intact and HAP1 MTAP-deleted cell line.
Setting [3] is: HAP1, read-out: Hap1 MTAP intact IC50, SDMA in-cell western, HAP1 MTAP-intact cell line.
Where [4] appears, read: HAP1, read-out: Hap1 MTAP deleted IC50, SDMA in-cell western, HAP1 MTAP-deleted cell line.
Where [5] appears, read: HAP1, read-out: Hap1 MTAP intact IC50, SDMA in-cell western assay, HAP1 MTAP-intact cell line.
Setting [6] is: HAP1, read-out: Hap1 MTAP deleted IC50, SDMA in-cell western assay, HAP1 MTAP-deleted cell line.
Setting [7] is: HAP1, read-out: Hap1 MTAP deleted IC90, SDMA in-cell western assay, HAP1 MTAP-deleted cell line.
[8] abbreviates: HAP1, read-out: Hap1 MTAP deleted IC90, SDMA in-cell western, HAP1 MTAP-deleted cell line.

Data on 16 molecules can be found in patent US20250163048A1 (Tango Therapeutics, Inc., priority 2022, published 2025).

SMILES strings stand for the structures. Read-outs that look alike come from different tables or passages of the source.

Take `C[C@H]1CC[C@H](c2ccc3sc(C4(CN(C)C)COC4)nc3c2)N(C(=O)C(=O)Nc2ccn3ccnc3c2)C1` [Compound 96, 2-((2R,5S)-2-(2-(3-((dimethylamino)methyl)oxetan-3-yl)benzo[d]thiazol-5-yl)-5-methylpiperidin-1-yl)-N-(imidazo[1,2-a]pyridin-7-yl)-2-oxoacetamide]: the concentration for half-maximal inhibition (IC50) in the test with MTAP-deleted cell line is 0.1 to 1 µM; in test [1] (setting [3]), greater than 0.05 µM; in test [2] (setting [4]) it was 0.005 to 0.05 µM. For the same molecule, the “Hap1 MTAP intact/deleted ratio” value in test [2] (SDMA in-cell western) is “A (“A” indicates an IC50 ratio greater than or equal to 30 fold)”.

Take `C[C@H]1CC[C@H](c2ccc3sc(C4CCN(C)C(=O)C4)nc3c2)N(C(=O)C(=O)Nc2cncc3cn[nH]c23)C1` (single isomer, unassigned) [Compound 98]: the values for the IC50 (in the test with MTAP-deleted cell line; in test [1] (setting [3]); in test [2] (setting [4])) were 0.1 to 1 µM, greater than 0.05 µM and 0.005 to 0.05 µM, respectively. Moreover, in test [2] (SDMA in-cell western), the “Hap1 MTAP intact/deleted ratio” value was “B (“B” indicates an IC50 ratio greater than or equal to 15 fold but lower than 30 fold)”.

In the case of `C[C@H]1CC[C@H](c2cccc3c2cnn3C)N(C(=O)C(=O)Nc2cnc(N)c3cn[nH]c23)C1` (racemic) [Compound 257, N-(4-Amino-2H-pyrazolo[4,3-c]pyridin-7-yl)-2-oxo-2-[rac-(5S)-5-methyl-2-(1-methylindazol-4-yl)-1-piperidyl]acetamide], the IC50 in the test on MTAP-deleted cell line is less than 0.1 µM; in test [1] (setting [5]), 0.005 to 0.05 µM; in test [2] (setting [6]) it was less than 0.005 µM. Moreover, the IC90 in test [2] (setting [7]) is less than 0.075 µM. Further, in test [2] (SDMA in-cell western assay), the “Hap1 MTAP intact/deleted ratio” value is on record as “C (“C” indicates an IC50 ratio of less than 15 fold)”.

Regarding `Cc1cnc2cc(NC(=O)C(=O)N3C[C@@H](C)CC[C@@H]3c3ccc4sc(C5CCN(C)CC5)nc4c3)ccn12` [Compound 74, N-(3-methylimidazo[1,2-a]pyridin-7-yl)-2-oxo-2-[(2R,5S)-5-methyl-2-[2-(1-methyl-4-piperidyl)-1,3-benzothiazol-5-yl]-1-piperidyl]acetamide], the IC50 in the test with MTAP-deleted cell line is less than 0.1 µM; in test [1] (setting [3]), greater than 0.05 µM; in test [2] (setting [4]) it was less than 0.005 µM. Moreover, in test [2] (setting [8]), the IC90 was less than 0.075 µM. In test [2] (SDMA in-cell western), the “Hap1 MTAP intact/deleted ratio” value is recorded as “A (“A” indicates an IC50 ratio greater than or equal to 30 fold)”.

As for `C[C@@H]1CC[C@@H](C2CCCC2)N(C(=O)C(=O)Nc2cnc(N)c3cn[nH]c23)C1` (racemic) [Compound 147, N-(4-amino-1H-pyrazolo[4,3-c]pyridin-7-yl)-2-(rac-(2S,5R)-2-cyclopentyl-5-methylpiperidin-1-yl)-2-oxoacetamide], the IC50 with MTAP-deleted cell line is less than 0.1 µM; in test [1] (setting [3]), greater than 0.05 µM; in test [2] (setting [4]), less than 0.005 µM. Besides, in test [2] (setting [8]), the IC90 was less than 0.075 µM. In addition, the “Hap1 MTAP intact/deleted ratio” value in test [2] (SDMA in-cell western) was “A (“A” indicates an IC50 ratio greater than or equal to 30 fold)”.

In the case of `Cc1ncc([C@H]2CC[C@H](C)CN2C(=O)C(=O)Nc2cnc(N)c3cn[nH]c23)o1` [Compound 177], the IC50 in the test with MTAP-deleted cell line was 0.1 to 1 µM; in test [1] (setting [3]), greater than 0.05 µM; in test [2] (setting [4]), 0.005 to 0.05 µM. In test [2] (setting [8]), the IC90 is greater than 0.125 µM. Moreover, the “Hap1 MTAP intact/deleted ratio” value in test [2] (SDMA in-cell western) is reported as “C (“C” indicates an IC50 ratio of less than 15 fold)”.

As to `C[C@H]1CC[C@H](c2ccc3sc(C4CCN(C5CC5)CC4)nc3c2)N(C(=O)C(=O)Nc2cncc3cn[nH]c23)C1` [Compound 131, 2-((2R,5S)-2-(2-(1-cyclopropylpiperidin-4-yl)benzo[d]thiazol-5-yl)-5-methylpiperidin-1-yl)-2-oxo-N-(1H-pyrazolo[4,3-c]pyridin-7-yl)acetamide], the IC50 with MTAP-deleted cell line is less than 0.1 µM; in test [1] (setting [3]) it was 0.005 to 0.05 µM; in test [2] (setting [4]) it was less than 0.005 µM. For the same molecule, the IC90 in test [2] (setting [8]) was less than 0.075 µM. Moreover, the “Hap1 MTAP intact/deleted ratio” value in test [2] (SDMA in-cell western) is listed as “C (“C” indicates an IC50 ratio of less than 15 fold)”.

Take `C[C@@H]1CC[C@@H](c2ccc3sc(CCN(C)C)nc3c2)N(C(=O)C(=O)Nc2ccn3ccnc3c2)C1` (single isomer, unassigned) [Compound 27, 2-(2-(2-(2-(dimethylamino)ethyl)benzo[d]thiazol-5-yl)-5-methylpiperidin-1-yl)-N-(imidazo[1,2-a]pyridin-7-yl)-2-oxoacetamide]: the IC50 with MTAP-deleted cell line was greater than 1 µM; in test [1] (setting [3]), greater than 0.05 µM; in test [2] (setting [4]), greater than 0.05 µM. Moreover, in test [2] (setting [8]), the IC90 was greater than 0.125 µM. Further, the “Hap1 MTAP intact/deleted ratio” value in test [2] (SDMA in-cell western) is given as “C (“C” indicates an IC50 ratio of less than 15 fold)”.

Turning to `C[C@H]1CC[C@H](c2cccc(CN(C)C)c2)N(C(=O)C(=O)Nc2cnc(N)c3cn[nH]c23)C1` [Compound 158, N-(4-amino-1H-pyrazolo[4,3-c]pyridin-7-yl)-2-((2R,5S)-2-(3-((dimethylamino)methyl)phenyl)-5-methylpiperidin-1-yl)-2-oxoacetamide], the values for the IC50 (in the test with MTAP-deleted cell line; in test [1] (setting [3]); in test [2] (setting [4])) were less than 0.1 µM, greater than 0.05 µM and less than 0.005 µM, respectively. The IC90 in test [2] (setting [8]) was less than 0.075 µM. The “Hap1 MTAP intact/deleted ratio” value in test [2] (SDMA in-cell western) is given as “B (“B” indicates an IC50 ratio greater than or equal to 15 fold but lower than 30 fold)”.

As to `C[C@H]1CC[C@H](c2ccc3sc([C@H]4CCN(C)C[C@H]4C)nc3c2)N(C(=O)C(=O)Nc2cncc3cn[nH]c23)C1` (relative stereo) [Compound 95, 2-oxo-N-(1H-pyrazolo[4,3-c]pyridin-7-yl)-2-[(2R,5S)-5-methyl-2-[2-[rel-(3S,4S)-1,3-dimethyl-4-piperidyl]-1,3-benzothiazol-5-yl]-1-piperidyl]acetamide], the values for the IC50 (in the test with MTAP-deleted cell line; in test [1] (setting [3]); in test [2] (setting [4])) were less than 0.1 µM, 0.005 to 0.05 µM and less than 0.005 µM, respectively. The 90% effect concentration (IC90) in test [2] (setting [8]) is less than 0.075 µM. Moreover, in test [2] (SDMA in-cell western), the “Hap1 MTAP intact/deleted ratio” value is listed as “B (“B” indicates an IC50 ratio greater than or equal to 15 fold but lower than 30 fold)”.

Turning to `C[C@H]1CC[C@H](c2ccc3nn(C4CCN(C)CC4)cc3c2)N(C(=O)C(=O)Nc2ccn3ccnc3c2)C1` [Compound 15, N-imidazo[1,2-a]pyridin-7-yl-2-oxo-2-[(2R,5S)-5-methyl-2-[2-(1-methyl-4-piperidyl)indazol-5-yl]-1-piperidyl]acetamide], the IC50 was less than 0.1 µM in the test on MTAP-deleted cell line, greater than 0.05 µM in test [1] (setting [3]) and less than 0.005 µM in test [2] (setting [4]). Besides, the “Hap1 MTAP intact/deleted ratio” value in test [2] (SDMA in-cell western) is reported as “A (“A” indicates an IC50 ratio greater than or equal to 30 fold)”.

On to `C[C@H]1CC[C@@H](c2ccnn2C)N(C(=O)C(=O)Nc2cnc(N)c3cn[nH]c23)C1` (stereo in doubt) [Compound 250, N-(4-Amino-1H-pyrazolo[4,3-c]pyridin-7-yl)-2-oxo-2-[rac-(2S,5S)-5-methyl-2-(2-methylpyrazol-3-yl)-1-piperidyl]acetamide], for which the IC50 was less than 0.1 µM with MTAP-deleted cell line, 0.005 to 0.05 µM in test [1] (setting [5]) and less than 0.005 µM in test [2] (setting [6]). For the same molecule, in test [2] (setting [7]), the IC90 is less than 0.075 µM. Further, in test [2] (SDMA in-cell western assay), the “Hap1 MTAP intact/deleted ratio” value is “B (“B” indicates an IC50 ratio greater than or equal to 15 fold but lower than 30 fold)”.

On to `Cc1cnc2cc(NC(=O)C(=O)N3C[C@@H](C)CC[C@@H]3c3ccc4sc(CCN(C)C)nc4c3)ccn12` [Compound 34, 2-((2R,5S)-2-(2-(2-(dimethylamino)ethyl)benzo[d]thiazol-5-yl)-5-methylpiperidin-1-yl)-N-(3-methylimidazo[1,2-a]pyridin-7-yl)-2-oxoacetamide], for which the IC50 in the test on MTAP-deleted cell line is less than 0.1 µM; in test [1] (setting [3]), greater than 0.05 µM; in test [2] (setting [4]), 0.005 to 0.05 µM. In test [2] (SDMA in-cell western), the “Hap1 MTAP intact/deleted ratio” value was “A (“A” indicates an IC50 ratio greater than or equal to 30 fold)”.

As to `C[C@H]1CC[C@H](c2ccc3sc([C@@H]4CCN(C)C[C@H]4C)nc3c2)N(C(=O)C(=O)Nc2ccn3ccnc3c2)C1` (relative stereo) [Compound 23, N-imidazo[1,2-a]pyridin-7-yl-2-oxo-2-[(2R,5S)-5-methyl-2-[2-[rel-(3S,4R)-1,3-dimethyl-4-piperidyl]-1,3-benzothiazol-5-yl]-1-piperidyl]acetamide], the IC50 is less than 0.1 µM in the test with MTAP-deleted cell line, greater than 0.05 µM in test [1] (setting [3]) and less than 0.005 µM in test [2] (setting [4]). Besides, the IC90 in test [2] (setting [8]) was less than 0.075 µM. For the same molecule, the “Hap1 MTAP intact/deleted ratio” value in test [2] (SDMA in-cell western) is “A (“A” indicates an IC50 ratio greater than or equal to 30 fold)”.

Regarding `Cc1cnc2cc([C@H]3CC[C@H](C)CN3C(=O)C(=O)Nc3cnc(N)c4cn[nH]c34)ccc2c1` (racemic) [Compound 210, N-(4-Amino-1H-pyrazolo[4,3-c]pyridin-7-yl)-2-oxo-2-[rac-(2R,5S)-5-methyl-2-(3-methyl-7-quinolyl)-1-piperidyl]acetamide], the IC50 in the test with MTAP-deleted cell line is less than 0.1 µM; in test [1] (setting [5]) it was less than 0.005 µM; in test [2] (setting [6]), less than 0.005 µM. The IC90 in test [2] (setting [7]) is less than 0.075 µM. Besides, the “Hap1 MTAP intact/deleted ratio” value in test [2] (SDMA in-cell western assay) was “C (“C” indicates an IC50 ratio of less than 15 fold)”.

Consider `C[C@H]1CC[C@H](c2ccc3sc(C4(CN(C)C)COC4)nc3c2)N(C(=O)C(=O)Nc2cncc3c(N)nccc23)C1` [Compound 82, N-(8-amino-2,7-naphthyridin-4-yl)-2-((2R,5S)-2-(2-(3-((dimethylamino)methyl)oxetan-3-yl)benzo[d]thiazol-5-yl)-5-methylpiperidin-1-yl)-2-oxoacetamide], for which the results for the IC50 (in the test on MTAP-deleted cell line; in test [1] (setting [3]); in test [2] (setting [4])) were 0.1 to 1 µM, greater than 0.05 µM and 0.005 to 0.05 µM, respectively. Also, the IC90 in test [2] (setting [8]) was greater than 0.125 µM. The “Hap1 MTAP intact/deleted ratio” value in test [2] (SDMA in-cell western) is “A (“A” indicates an IC50 ratio greater than or equal to 30 fold)”.
